The test system of this data set is ATP. The experiment in a line: switch fluorescence ratio, 500 uM ATP over buffer (Cy3 cluster intensity, sum of 5 cycles each) (fold (ratio)); higher = stronger signal-on switching upon ATP binding; sequences stand for … in TCGTCGGCAGCGTCAGATGTGTATAAGAGACAGTTTTTTTTTTTTTTTTTTTTTTTTT…TC. As to conditions: aptamer strand: ATP DNA aptamer (quencher-CACCTGGGGGAGTATTGCGGAGGAAGG + anchor), 100 nM annealed; ATP concentration: 500 uM; one replicate. In short, it runs like this: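 Cy3-labelled switching-strand clusters on a modified Illumina MiSeq flow-cell were annealed to 100 nM quencher-labelled ATP aptamer and imaged first in selection buffer, then after 15 min with 500 uM ATP at 22 °C. NaOH stripping and re-annealing separated each of five buffer/ATP cycles, and clusters outside 100-1000 RFU were excluded. The fluorescence ratio sums target-cycle Cy3 intensity over buffer-cycle Cy3 intensity per cluster and averages it per switch-domain sequence.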

Values marked as one replicate rest on one cluster of the flow cell; about a third of the high ones do not repeat.
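Further: ATP exposure 15 min at 22 °C before imaging.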

Turning to CACGTATGAG, the switch fluorescence ratio is 1.05.
GGTCGGCCTA: the switch fluorescence ratio turned out to be 1.1.
Regarding TCAATGGA, the switch fluorescence ratio was 1.03.
Take GCGGTCCGCT: the switch fluorescence ratio came out at 0.947.
ATTTAATAGT: the switch fluorescence ratio was 0.995.
Regarding GGGCGACTGG, the switch fluorescence ratio came out at 0.948.
Regarding AGCACTAAGA, the switch fluorescence ratio was determined as 1.02.
In the case of TATAAAGCGA, the switch fluorescence ratio is 1.01.
Consider TTGTGGTAGC, for which the switch fluorescence ratio is 1.01.
With TTTTGTGTGA, the switch fluorescence ratio worked out at 0.971.
As for CGACGAGAAG, the switch fluorescence ratio is 1.04.
The result for CTCGTGAGCA reads 1.05.
Turning to AGGCTAAGTG, the switch fluorescence ratio came out at 0.976.
As to TTCAGCGGGG, the switch fluorescence ratio was 0.979.
As for ATGTATAAAA, the switch fluorescence ratio was 0.984.
CTTCTATAAA: the switch fluorescence ratio is 1.02.
On to AAATCGACAG, for which the switch fluorescence ratio came out at 0.988.
As for GATTAGAAAA, the switch fluorescence ratio amounted to 0.997.
With AGCAGGGATC, the switch fluorescence ratio amounted to 1.04.
TTTAAGTTA: the switch fluorescence ratio was 1.01.
For the sequence GTCCTTAGGG, the switch fluorescence ratio amounted to 0.971.
Consider CGGATGTGAG, for which the switch fluorescence ratio worked out at 1.02.
On to GCTAGACCTA, for which the switch fluorescence ratio amounted to 1.02.
As to GCGGCAGACT, the switch fluorescence ratio turned out to be 1.07.
Take GAATGAAGTT: the switch fluorescence ratio is 0.989.
GGGTTTGTCG: the switch fluorescence ratio was determined as 0.956.
The result for CGTATAGAAA reads 1.05.
Take TTGGTAGAAG: the switch fluorescence ratio was 1.06.
As for TGCTCTATGT, the switch fluorescence ratio stood at 0.983.
GTGCGGTCGG: the switch fluorescence ratio was 0.978.
For GGGGGAGGC, the switch fluorescence ratio came to 1.03.
As to TCCACCGAA, the switch fluorescence ratio was found to be 1.77.
Turning to TTTCCTAGA, the switch fluorescence ratio is 0.994.
As to CTTAAGATGC, the switch fluorescence ratio stood at 1.42.
Next, CTGAGGGACT: 1.05; CGGTTTGAGA: 0.953; TATCTATGCA: 1.02.
The result for TACGAAAGCT reads 1.23.
For the sequence GTCCGACACG, the switch fluorescence ratio stood at 1.1.
In the case of GAGTTCGGTC, the switch fluorescence ratio came to 1.05.
Next, TTCGAGTTTA: 0.958.
Next, TCATGTATCG: 1.03; TCAAAGATTT: 1.03.
As to TAGTATCTTG, the switch fluorescence ratio was 1.
Take GAGGTATGA: the switch fluorescence ratio was 1.01.
On to CATTGAGTCT, for which the switch fluorescence ratio is 0.999.
For the sequence TCAGTTGATT, the switch fluorescence ratio came out at 1.02.
As to TCTGTTATAA, the switch fluorescence ratio was 1.08.
As for GAAGGTTTGC, the switch fluorescence ratio was determined as 1.02.
Next, GTGAAGGGAG: 0.965; GGAGAAGGTA: 1.
Consider GGAGGGGCAG, for which the switch fluorescence ratio is 0.994.
GTGGTCATCC: the switch fluorescence ratio is 0.973.
For the sequence CGCTCACGGG, the switch fluorescence ratio worked out at 1.08.
Next, ACGGATGGCA: 0.93; CGTTGCTGTA: 0.967; TTTTGAGT: 0.937.
Consider CCCCATATGA, for which the switch fluorescence ratio was 1.08.
The result for TCATGGGAAT reads 1.08.
With GGACCTATAT, the switch fluorescence ratio stood at 1.
GCAGGGGCAT: the switch fluorescence ratio turned out to be 0.985.
As for AGTAAGATTC, the switch fluorescence ratio is 1.02.
For AACGTATCAT, the switch fluorescence ratio was found to be 0.989.
Next, GATGGCTA: 1.03.
Take GGGAGTTCGC: the switch fluorescence ratio stood at 0.955.
In the case of CTCTGGAATT, the switch fluorescence ratio was 1.6.
For the sequence AGGGTTTC, the switch fluorescence ratio was 0.959.
Consider ATCGAGTTGA, for which the switch fluorescence ratio amounted to 0.963.
As for TGGACGTCCA, the switch fluorescence ratio was found to be 1.04.
For the sequence TATCGATCCC, the switch fluorescence ratio stood at 1.05.
Regarding AACTGGGTTA, the switch fluorescence ratio was found to be 0.973.
Turning to GATATGGTCT, the switch fluorescence ratio was determined as 1.
In the case of CGCAGGATAG, the switch fluorescence ratio is 1.34.
Consider CGCAAAATCT, for which the switch fluorescence ratio came to 1.86.
In the case of ACGGCGTTCA, the switch fluorescence ratio was found to be 0.983.
As to TAGGAAGGGC, the switch fluorescence ratio came to 0.992.
Turning to GTTTCGGA, the switch fluorescence ratio worked out at 0.996.
Turning to AGATGTGCGT, the switch fluorescence ratio turned out to be 0.973.
As for GGAATTTCG, the switch fluorescence ratio is 0.98.
With GGTTATCATC, the switch fluorescence ratio was determined as 0.998.
In the case of TGCTGCCGCA, the switch fluorescence ratio is 1.14.
As to GTCGGACACG, the switch fluorescence ratio was 0.965.
Regarding GGTCAATTCT, the switch fluorescence ratio came out at 0.982.
Turning to AAAAAATGT, the switch fluorescence ratio worked out at 0.984.
Turning to ATCTAACCAT, the switch fluorescence ratio was 1.02.
The result for GGTTAGACTG reads 1.08.
Turning to GGACAGTATC, the switch fluorescence ratio worked out at 1.04.
TTGATGTCGG: the switch fluorescence ratio is 0.971.
Next, CTAGTGTTCT: 0.961.
Take TTTCTTCATC: the switch fluorescence ratio stood at 1.04.
As for TGGAGTTCTA, the switch fluorescence ratio worked out at 0.985.
For the sequence TGGGGAAGTA, the switch fluorescence ratio turned out to be 0.981.
Take CATTATTGAG: the switch fluorescence ratio is 1.02.
As for CGGTCTAACT, the switch fluorescence ratio was found to be 0.977.
Regarding TGTCAAGTA, the switch fluorescence ratio was 1.07.
The result for AATTTTGCGC reads 0.976; that for ACGTGCAGGG, 1.03; that for CAAAAAATGG, 0.992.
The result for CGCCTAGTGG reads 1.03; that for GCGGCTGGT, 0.966.
Next, AATCTTGGGG: 1.01; AGTCGATGCC: 0.991; AACTTGGGGT: 1.01.
With GTGGCTGTCC, the switch fluorescence ratio stood at 1.04.
Take GGGGTATG: the switch fluorescence ratio was determined as 1.01.
The result for TGCGCGACAT reads 1.09; that for GTTGAAAGTT, 1.05.
For AGAGAATGAA, the switch fluorescence ratio is 0.983.
Consider CGTCTTGTAC, for which the switch fluorescence ratio came out at 1.16.
As for TGATGTTTCT, the switch fluorescence ratio stood at 1.01.
The result for TGTGCGTCGT reads 0.961; that for GAGAAAAATT, 1.
The result for ATGCAAATAG reads 1.15; that for TGTGCAAAAA, 0.989; that for GCAATCCGTG, 1.14.
For the sequence TTTCCGTTAA, the switch fluorescence ratio came to 1.11.
The result for TCGATGGCCC reads 1.03; that for GTTTTTCGAA, 1.01; that for TATAACAATA, 1.
AGCCGGATTA: the switch fluorescence ratio came out at 0.991.
TTACAATTGA: the switch fluorescence ratio is 1.06.

The record behind these values is the supplement of paper PMC10126150.
